Test results: PubChem BioAssay AID588855 (National Center for Advancing Translational Sciences (NCATS), 2011)
About 5,000 (1.2%) of roughly 410,000 compounds were called active. The inconclusive results got no clear call from the source; some entries with a clear call stand among them for comparison. Calls come from the whole dose curve; as a rule, active = well fitted inhibition curve with a large enough effect; inconclusive = small, poorly fitted or top-dose-only effect; inactive = no such curve, though single readings can be large or run the other way. A potency beside an inconclusive call is a rough fit, not a confirmed value.

Assay: qHTS for Inhibitors of TGF-b; note: nearly all actives have a fitted effect of over 65% in size
Conditions: HepG2 CAGA-GFP TGF-b/SMAD3 reporter, GFP fluorescence, 18 h, TGF-beta stimulated, 500 pg/mL final; series mostly up to 46.1 µM
Outline: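 Per well, imaged GFP fluorescence of HEPG2 CAGA-GFP cells gives the signal; cells get compound, then TGF-beta (500 pg/mL final), 18 h at 37 degrees C; %Activity versus -TGF-beta and +DMSO controls.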
Potency is the fitted concentration of half-maximal effect; tags give direction and shape of the fitted curve.

| Compound | Potency |
| --- | --- |
| FC(F)Oc1ccc(C2=Nn3c(nnc3-c3ccccc3Cl)SC2)cc1OCC1CC1 | inconclusive: 3.98 µM [inhibitor, full curve, poor fit] |
| CN1/C(=C/C=C/c2n(C)c3cc([N+](=O)[O-])c([N+](=O)[O-])cc3[n+]2C)C(C)(C)c2ccccc21 | inconclusive: 22.4 µM [inhibitor, partial curve, poor fit] |
| Cc1ccc(C)c2[nH]c(=O)c(CN(Cc3nnnn3C3CCCCC3)CC3CCCO3)cc12 (stereo not drawn) | inconclusive: 22.4 µM [inhibitor, single point] |
| COc1ccc(C(=S)N2CCCCC2)cc1Br | inactive |
| CN(C)CCCSc1nc2ccccc2s1 | inactive |
| CCn1c(SCC(=O)Nc2nnc(C)s2)nnc1-c1ccco1 | inconclusive: 35.5 µM [inhibitor, single point] |
| COc1cccc(S(=O)(=O)Nc2ccc(C(=O)Nc3ccncc3)cc2)c1 | inconclusive: 14.1 µM [inhibitor, single point] |
| Cn1c(CCCOc2ccc(Cl)cc2Cl)nnc1SCC(=O)Nc1ccc(F)c(Cl)c1 | inconclusive: 8.91 µM [inhibitor, partial curve, poor fit] |
| N#C/C(C(=O)Nc1ccc(Cl)cc1)=C(/S)Nc1ccccc1 | active: 11.2 µM |
| CC(Nc1nc(-c2ccncc2)nc2ccccc12)c1ccccc1 (stereo not drawn) | inconclusive: 17.8 µM [inhibitor, single point] |
| CC1(C(=O)NCc2ccc(C(F)(F)F)cc2)CCN1Cc1ccc(-c2ccccc2)o1 (stereo not drawn) | inconclusive: 22.4 µM [inhibitor, single point] |
| CC(C)CC(C(=O)N1CCc2ccccc2C1)N1C(=O)c2ccccc2C1=O (stereo not drawn) | inconclusive: 35.5 µM [inhibitor, single point] |
| Cc1ccc(-n2cc(-c3ccccc3)nc2S(=O)(=O)CC(=O)Nc2ccc(F)cc2)cc1 | inconclusive: 35.5 µM [inhibitor, single point] |
| CCOC(=O)Cn1nnnc1CN(CCc1ccccc1)Cc1cc2cc(CC)ccc2[nH]c1=O | inconclusive: 25.1 µM [inhibitor, partial curve, poor fit] |
| COc1ccc(N2CCN(C(c3ccccc3)c3nnnn3Cc3ccccc3)CC2)cc1 (stereo not drawn) | inactive |
| O=C(O)CCCN1C(=O)/C(=C\C(Cl)=C\c2ccccc2)SC1=S | inconclusive: 35.5 µM [inhibitor, single point] |
| CSc1nnc(NC(=O)c2nc(S(=O)(=O)Cc3ccccc3F)ncc2Cl)s1 | inconclusive: 35.5 µM [inhibitor, single point] |
| Cc1ccc(N(CC(=O)NCc2ccc(F)cc2)S(=O)(=O)c2c(C)nn(C)c2C)cc1 | inconclusive: 7.94 µM [inhibitor, partial curve, poor fit] |
| COc1cccc(CNC(=O)c2ccc3c(c2)nnn3C2CCCC2)c1 | inconclusive: 2.51 µM [inhibitor, single point] |
| CCCCCCCC1c2c(c(C)c(C)oc2=O)Oc2c(C)c(C)oc(=O)c21 | inconclusive: 35.5 µM [inhibitor, partial curve, poor fit] |
| COc1ccc(S(=O)(=O)NCCSc2ccc(Cl)cc2)cc1OC | inconclusive: 14.1 µM [inhibitor, partial curve, poor fit] |

| Compound | Potency |
| --- | --- |
| CC(=O)Nc1ccc(-c2nc3cc(Cl)ccc3o2)cc1 | active: 11.2 µM |
| CCCn1nnnc1NCc1cccc(OC)c1OC | inconclusive: 5.01 µM [inhibitor, single point] |
| O=C(CCNS(=O)(=O)c1ccc(Br)s1)NC1CCCC1 | inconclusive: 35.5 µM [inhibitor, partial curve, poor fit] |
| Nc1nc(Br)c2c(F)cccc2c1-c1ccc(Cl)cc1 | inconclusive: 14.1 µM [inhibitor, single point] |
| CCOC(=O)N1CCN(S(=O)(=O)c2ccc(C(=O)Nc3sc4c(c3C#N)CCC4)cc2)CC1 | inactive |
| Cc1cc(-c2nc3cc(F)ccc3s2)ccc1N | inconclusive: 0.1 µM [inhibitor, full curve, poor fit] |
| CCCn1c2ccccc2c2cnn(CC(=O)N(C)c3ccccc3CC)c(=O)c21 | inconclusive: 15.8 µM [inhibitor, single point] |
| O=C(Nc1nccs1)[C@@H]1CC=C[C@@H]2CCN(C3CCCCC3)C(=O)[C@@H]21 | inconclusive: 17.8 µM [inhibitor, single point] |
| Fc1ccc(C(NCCc2ccc(Cl)cc2)c2nnc(-c3ccccc3)o2)c(Cl)c1 (stereo not drawn) | inconclusive: 12.6 µM [inhibitor, partial curve, poor fit] |
| CCOC(=O)C1(CCc2ccccc2)CCN(C(=O)c2cccc(C)n2)CC1 | inconclusive: 15.8 µM [inhibitor, single point] |
| CCOc1cc(/C=N/Nc2cc(C)nc(-n3nc(C)cc3C)n2)ccc1O | inconclusive: 1 µM [inhibitor, partial curve, poor fit] |
| O=C(NN1CCOCC1)c1cc(-c2ccc(Br)s2)nc2ccccc12 | inconclusive: 15.8 µM [inhibitor, single point] |
| CCCCCCCCCCCCN1[C@@H](CC(C)=O)c2cc(C(F)(F)F)ccc2S1(=O)=O | inconclusive: 1 µM [inhibitor, partial curve, poor fit] |
| Cn1c(=O)cc(OCCCC(=O)NCCN2CCN(c3ccccc3F)CC2)c2ccccc21 | inactive |
| O=C(NC1CSC/C1=N\O)c1ccccc1 (stereo not drawn) | inconclusive: 35.5 µM [inhibitor, single point] |
| Cc1ccc(CNC(=O)C(NS(=O)(=O)c2ccc3nc(C)sc3c2)C(C)C)cc1 (stereo not drawn) | inconclusive: 35.5 µM [inhibitor, partial curve, poor fit] |
| Fc1ccc(NC(=S)N2CCN(c3cccc(C(F)(F)F)c3)CC2)cc1 | inconclusive: 3.16 µM [inhibitor, partial curve, poor fit] |
| O=C(Nc1ccc(F)cc1)c1ccccc1Oc1ccc(C(F)(F)F)cc1[N+](=O)[O-] | inconclusive: 35.5 µM [inhibitor, single point] |
| COc1cc2c(cc1OC)C(Cc1ccc(O)cc1)N(C)CC2 (stereo not drawn) | inactive |
| COc1cc(CC(=O)OCC(=O)Nc2ccc(N3CCOCC3)cc2)cc(OC)c1OC | inactive |
| O=C(CCC1N=C2c3ccccc3N=C(SCc3ccc(Cl)cc3)N2C1=O)NCCc1ccccc1 (stereo not drawn) | inconclusive: 35.5 µM [inhibitor, single point] |

| Compound | Potency |
| --- | --- |
| FC(F)(F)c1cc(CO[C@@H]2CCCN[C@@H]2c2ccccc2)cc(C(F)(F)F)c1 | inconclusive: 35.5 µM [inhibitor, single point] |
| CCOC(=O)/C=C/[C@H]1CCc2cccc(Cl)c2O1 | inactive |
| Cc1cc(C)nc(Sc2ncnc(N)c2[N+](=O)[O-])n1 | inconclusive: 17.8 µM [inhibitor, partial curve, poor fit] |
| CC(C)(C)OC(=O)NCc1ccc(CNC(=O)c2nc[nH]c2C(=O)N2CCN(C(=O)OC(C)(C)C)CC2)cc1 | inconclusive: 0.794 µM [inhibitor, full curve, poor fit] |
| CCOc1ccc(N(CC(=O)NCc2ccc(Cl)cc2)S(=O)(=O)c2ccccc2)cc1 | inconclusive: 35.5 µM [inhibitor, single point] |
| CC1CCCCC1NC(=O)CN1C(=O)NC(C)(c2ccc(OC(F)F)cc2)C1=O (stereo not drawn) | inconclusive: 12.6 µM [inhibitor, single point] |
| COc1ccc(C2c3c(ncn(CCN4CCOCC4)c3=N)Oc3ccc4ccccc4c32)cc1OC (stereo not drawn) | inconclusive: 12.6 µM [inhibitor, partial curve, poor fit] |
| O=S(=O)(NCc1nc2cccnc2n1Cc1ccccc1)c1ccc2c(c1)CCCC2 | inconclusive: 17.8 µM [inhibitor, single point] |
| CC(C)CC1NC(=O)N(CC(=O)N2CCCc3ccccc32)C1=O (stereo not drawn) | inactive |
| CCOC(=O)C1=C(N)OC2=C(C(=O)CC(C)(C)C2)C1c1ccco1 (stereo not drawn) | inactive |
| N#C/C(=C/c1ccc(Cl)cc1)c1nc(-c2ccc(Br)cc2)cs1 | inactive |
| COc1ccccc1-n1ccnc(SCC(=O)NCc2ccccc2Cl)c1=O | inconclusive: 15.8 µM [inhibitor, single point] |
| CCc1ccc(-n2c(=O)c3c(C)c(C)sc3n(CC(=O)NCc3ccc(C)cc3)c2=O)cc1 | inactive |
| O=C(NCCC1=CCCCC1)c1ccc2c(c1)N(Cc1ccccc1)C(=O)CS2 | inconclusive: 35.5 µM [inhibitor, single point] |
| CCCCc1nn2c(=O)cc(COC(=O)c3cccc(NC(=O)CCc4ccccc4)c3)nc2s1 | inconclusive: 11.2 µM [inhibitor, partial curve] |
| Cc1ccc(C(=O)OC(C)CN2C(C)CCCC2C)cc1 (stereo not drawn) | inactive |
| CC(OC(=O)c1ccc(F)cc1)C(=O)Nc1nc(-c2cccc([N+](=O)[O-])c2)cs1 (stereo not drawn) | inactive |
| CCCCCn1cc2c(c1-c1ccc(Br)cc1)c(=O)n(C)c(=O)n2C | inconclusive: 0.355 µM [inhibitor, full curve, poor fit] |
| Cc1[nH]c2ccc(F)cc2c1CCN(Cc1cccnc1)C(=S)Nc1cccc(F)c1 | inconclusive: 35.5 µM [inhibitor, single point] |
| COc1cccc(NC(=O)Cn2nnc(-c3nc(-c4ccccc4)no3)c2N)c1 | inconclusive: 35.5 µM [inhibitor, single point] |
| O=C(Cn1c(=O)oc2cc(Cl)ccc21)Nc1cccc(C(F)(F)F)c1 | inconclusive: 14.1 µM [inhibitor, partial curve, poor fit] |
